According to the RNAGym collection of RNA variant scans (doi:10.7554/elife.90254):
The source gives no read counts; variants with many changes may rest on few reads.

B1: LINE1-mini (parent)
chain: GGCAGAGCUCAACACAGCGUGGCAAAGUGGCUGUGGCUAGACUGCC

Variants of: B1
Assay: self-cleavage, relative activity (ratio to wild type); higher = more cleavage; in vitro, sequencing; the parent is a self-cleaving ribozyme

| Variant | self-cleavage |
| --- | --- |
| AGCAAAGCUCAACACUGUGUAGCAAAGUGGCUGUGGCUAGACUGCC | 0.04 |
| GGCAUAGCUCAACACAGUGUGGUAAAGUGGCUGUGGCUAGACUGCC | 0.02 |
| GGCAGCGCUCAACACAGCGUGGGAACGUGGCUGUGGCUAGACAGCC | 0.03 |
| GCGAGAGCUCAACACAUCGUGGCAAAGUGGCUGUGGCUAGAUUGCC | 0.09 |
| GGCAGAGCUCAACACAGCGUGGCAAAGUGCCUGUGGCUAUACGGCA | 0.05 |
| GGCAGAGCUCAACACAGCGGGGCAAAGUGGGUGUGGCUAAACUGCC | 0.03 |
| GGCCAAGCUAAACACGGCGUGGCAAAGUGGCUGUGGCUAGACUGCC | 0.02 |
| UGCAAAACUCAACACAGCGUGGCAAAGUGCGUCUGGCUAGACUGCC | 0.05 |
| GGCAGAGCUCAACACAGCGUCGCAAAGUGGCUGUGGCUAGACGGCA | 0.01 |
| GGCAGCGCUCAACACCGCGUACCAAAGUGGCUGUGGCUAAACUGCC | 0.01 |
| GUGGAAGCUCUACACAGCGUGGCAAAGUGGCUGUGGCUAGACUGCC | 0.02 |
| GGCAGAGCUCAACAUAGCGUGCCAAAGUGGCUGUGGCUAGGCUGCC | 0.07 |
| GGCAGAGCUCAAAACAGCGGGGCAAAGUGGCGGUGGCUAGACUGCC | 0.01 |
| GGCAGAGCUAAAUACAGCAUGGCAAAGUGGCAGUGGCUAUACUGCA | 0.03 |
| AGCAGAGCUCAACACAGCGUGACAAUGUGGCUGUGGCUAGACUGCC | 0.67 |
| GGUAGAGCUCAACACAGCGUGGAAAAGUGGCUGUGACUAGAUUGCC | 0.11 |
| GGCAGCGCUCAACACAGCGUGGCAAAGUGGCUGUGACUAGACAGCC | 0.11 |
| UGCAGAGCUCAACACAGCGUGGGAAAGUGGCUGCGGCUAGACUGCC | 0.08 |
| GGCAGAUCUAAACACAGCGUGGCAAGGUGGGUGUGGUUAGACUGCC | 0.01 |

| Variant | self-cleavage |
| --- | --- |
| GGCAGAACUCAACACAGCGUGGCAAAGUGGCGGUGGGUAGACUGCC | 0.02 |
| GCCCGAGCUCAACACAGCGUGGCACAGUGGCUGUGGCUAGACUGCC | 0.02 |
| GGCAGAGCUCAACACGGCGUGACAAAGUGGCUGUGGCUAGACCGCG | 0 |
| CGAAGAGGUCAACACAGCGUGGCAAAGUGGCUGUGGAUAGACUGCU | 0.03 |
| AGCAGAGCUUAACACCGCGCGGCAAAGUCGCUGUGACAAGACUGCA | 0.02 |
| GGCAGAGCUCAACACAGCGUGUCAAAGUGGCUGUGGCAACACUGCC | 0.07 |
| UGCAGAGCUCAACACAGCGUGGCAAAGUGGAUGUGGGUAGACUGCC | 0.03 |
| GGCAGAGCUCAAGACAGCGUGGCAAAUUGGCUCUGGCUAGACUGCC | 0.01 |
| UGGAGAGCUCAACUGAGCGUGGCAAAGUGGCUGUGGCUAGAAUGCC | 0.05 |
| GGUAGAUCUCAACACAGCUUGGCAAAGUGGCUGUGGCUAGACAGCC | 0.63 |
| GACAGAGCUCAACACAGCGUGGCAAAGCGGCUGUGGCUAGACUUCC | 2.31 |
| GGCAGGGCUAAACACAGCGCGGCAAAGUGGCUGUGGCUAGACCACC | 0.01 |
| GGUAGAUUUCAACACAGCGUGGCAAAGUGGCCGUGGCUAGACUGCC | 2.32 |
| GCUGGAGCUCAAGACAACGUGGCAAAGUGGCUGUGGCUAGACUGGC | 0.03 |
| GGCAGAGCUCAACUCAGCUUGCCAAAGUGGCUGUGGCUAGACUGCC | 0.18 |
| GGCAGAGAUAAACACAGAGUGGCAAAGUGGCCGUGGCUAGACUGCC | 0.01 |
| GGGGGAGCUCAACACAGCGUGGCAAAGUGGCUGUAGCUAGACUGCC | 0.04 |
| GGCAGAGCUCAACACAGCGUGGCAACGAGGACGUGGCUAGACUGGC | 0.02 |
| GGCAGAGCUUAACACAGCGUGGCAAAGUGGCUGUGGAUUCACUGCC | 0.03 |

| Variant | self-cleavage |
| --- | --- |
| GGGAGAGCUCAACACAGCGUGGCACAGUAGCUGUGGGUAGACUGCC | 0.02 |
| GGCAGUGCUCAACACAGCGUGGCUAAGUGGCUGUGGCUAGACUGCG | 0.14 |
| GGCAGAGCUGAACACAGCGUGGCAGAGUGGCCAUGGCUAGACUGCC | 0.01 |
| GGUAGAGCACAACACAGCGUGGCAAAGUGGCUGUGGCCAGACUGCC | 0.03 |
| GGCAGUGCUCAACACAGCGGGGCAAAGUGGGUGUGGCUAGACUGCC | 0.05 |
| GUCAGAGCUCAACACAGCGCGGAAAAGUGGCUGUGGAUAGACUCCC | 0.01 |
| GGCAGAGCUCCACACAUCGUGGCAAAGUGGCUGUGGCUGGACUCCC | 0 |
| GGCAGAGCUCAACACAGCGUGGGAAAGUGGCUAUGGCUUGACUGCC | 0.07 |
| GGCAGAGCUCAACACAGUGUGGGAAAGUGGCUCUGGCCAGACUGCC | 0.02 |
| GGCACAGCUCAACACAGCGUGACAAAAUGGCUGUGGCUAGACUGCC | 0.06 |
| GGCAGAGCUUAUCACAGCGUGGCAGAGAGGCUGUGGGUAGACUUCC | 0.03 |
| GGCAGAGCUCACCACAGCGUGGCAAAGUGGCUGUUGCAGGACUGCC | 0.01 |
| GGCAGAGCUCGACACAGCCUGGCAAAGCGGCGGUGGCUAGACUGCC | 0.02 |
| GGCAGAGCUCAACACAGCUUCGCAAAGUGACUUUGGCUAGACUGCC | 0.04 |
| GGCAGAGCUCUACACAGAGUGGCAAAGUGGAUGUGGCUAGACUGGC | 0.01 |
| GGCAGAGCUCAACACAGCCAGGCAAAAUGGCCGUGGUUAGACUGCC | 0.03 |
| GGCAGAGUUCAACACAGCGUAGCAGAGUGGCUGUGGCUAGACUGCC | 0.42 |
| GGCAGAGCUCAACACAGCGAGGCAAAGUGUCUGUGGCUAGAAUGCC | 0.78 |
